Out of some 150,000 compounds screened, about 540 (0.36%) showed an effect of 50% or more. The list shows a part of the results.

The experiment concerns Plasmodium falciparum. Put plainly: Primary screen in NF54 nanoGlo assay, in single point, at 2uM, 72h; a lower Z score goes with more inhibition. The format is functional, Erythrocyte. To be noted: timepoint 72 hour.
By % Inhibition is commonly meant the relative decrease from the control value, in per cent. Regarding `CCN(CCCOc1ccc(C)c(C)c1)[C@H]1CCS(=O)(=O)C1`, the “% Inhibition” value was determined as 3% and the Z score is reported as -0.43.
In the case of `CCn1ncnc1CNC1CC(c2ccc(Br)cc2)C1` (stereo not drawn), the “% Inhibition” value was -13% and the Z score was found to be 1.96.
As for `O=C(NCCOCCN1C(=O)CCC1=O)NC1CCCC1`, the “% Inhibition” value is -13% and the Z score is reported as 2.26.
In the case of `Cn1cc(S(=O)(=O)N2CCC(C(=O)Nc3ccccc3)CC2)c(=O)n(C)c1=O`, the “% Inhibition” value is on record as -8% and the Z score came to 1.08.
Taken in the same sequence, the figures for `COc1ccccc1OCC(=O)Nc1ccccc1-n1cnnc1C` were 36% and -4.88.
Turning to `Cc1cc(N2C[C@H](N(C)C)C3(CCOCC3)C2)nc(C)n1`, the “% Inhibition” value was -5% and the Z score was 1.01.
`Cc1nnc([C@H]2CN(C(=O)c3ccccc3)CC23CCN(C(=O)Cc2cccnc2)CC3)o1`: the “% Inhibition” value is on record as -19% and the Z score is reported as 2.83.
As to `Cc1[nH]ccc1C(=O)N(CCN(C)C)Cc1ccco1`, the “% Inhibition” value is reported as -14% and the Z score was found to be 2.23.
For `Cc1[nH]c2c(CN(C)CCc3cnn(C)c3)cccc2c1C`, the “% Inhibition” value was -11% and the Z score is on record as 1.84.
In the case of `CCOc1ncccc1CNC(=O)c1coc(NC(=O)Cc2c(C)noc2C)n1`, the “% Inhibition” value is 6% and the Z score is on record as -0.81.
`O=C1CN(C(=O)[C@H](O)C2CCCCC2)CCCN1`: the “% Inhibition” value was -5% and the Z score amounted to 1.03.
As for `NC(=O)CCn1cc(-c2cccc(-c3ccn[nH]3)c2)cn1`, the “% Inhibition” value is recorded as -12% and the Z score turned out to be 1.19.
For the compound `COc1cc(C(=O)N[C@H]2COCC[C@@H]2OC)c(Cl)cc1OC(C)C`, the “% Inhibition” value was 0% and the Z score is given as 0.05.
For `CS(=O)(=O)c1ccc(C(=O)NCC[C@H]2CCc3ccccc32)s1`, the “% Inhibition” value is recorded as -2% and the Z score is 0.35.
Turning to `Cc1cc(C(=O)N2C3CCC2CC(N(C)C(=O)c2ccccc2)C3)cnn1` (stereo not drawn), the “% Inhibition” value is -9% and the Z score came out at 1.18.
Regarding `CN(C(=O)c1ccc(C(N)=O)cn1)C1CCCCCC1`, the “% Inhibition” value is on record as -2% and the Z score was determined as 0.25.
As to `CCOC(=O)c1cc(-c2ccccc2)n(-c2cccc(C(=O)Nc3cccc(C)n3)c2)c1C`, the “% Inhibition” value is 13% and the Z score is given as -1.46.
For the compound `COc1cccc(CNC(=O)CC2CC(F)(F)C2)c1`, the “% Inhibition” value was found to be 7% and the Z score is -0.84.
As for `c1ccc2oc(CN3CC[C@H]4CC[C@@H](C3)N4)cc2c1`, the “% Inhibition” value is recorded as -10% and the Z score came out at 1.1.
For `CCOc1ccc(NC(=O)C2[C@H]3C=C[C@@]4(O3)C(C(=O)NC3CCCCC3C)N(C(C)C)C(=O)[C@@H]24)cc1` (stereo partly drawn) the same measures were 1% and -0.22.
Consider `COc1ccc(C(=O)Nc2ccc(-c3nc(-c4cc(C)ccc4C)co3)cc2)cc1`, for which the “% Inhibition” value turned out to be 0% and the Z score was -0.01.
For `Cc1nc2ncnn2c(N2CCS(=O)(=O)C(C)(C)C2)c1C`, the “% Inhibition” value is -13% and the Z score turned out to be 1.5.
Consider `COC(=O)[C@@H](C)CC(=O)NCCc1ccccc1`, for which the “% Inhibition” value is -2% and the Z score came to 0.24.
Take `O=S(=O)(NC1CCN2CCCCC12)c1ccccc1` (stereo not drawn): the “% Inhibition” value is on record as -5% and the Z score worked out at 0.95.
As to `Cc1cc(N2CCCCS2(=O)=O)cc(C)c1S(=O)(=O)NC1CC1`, the “% Inhibition” value is listed as -16% and the Z score is given as 1.47.
For `N#Cc1ccc(OCCN2CCCC[C@@H]2Cn2cncn2)cc1`, the “% Inhibition” value is reported as -9% and the Z score was found to be 1.4.
As for `O=C(NCc1ccco1)c1cc(NCc2ccc3c(c2)OCO3)ccn1`, the “% Inhibition” value worked out at 1% and the Z score is -0.23.
For `Cc1ccc(NCc2ccc(-c3cccc(F)c3C)o2)cc1N1C(=O)CCC1=O` the same measures were 14% and -1.42.
With `CCOc1cccc(CNC(=O)[C@]2(CC)CCCCC(=O)N2)c1`, the “% Inhibition” value is on record as 9% and the Z score was -1.08.
As to `COCCn1ncc2c1[C@@H](NC(=O)c1cccc(CO)c1)CCC2`, the “% Inhibition” value is on record as -9% and the Z score worked out at 1.51.
For `O=C(Cn1ccc2ccccc21)N1CCN(CCO)[C@@H]2CS(=O)(=O)C[C@@H]21` the same measures were -10% and 1.35.
Take `CCn1c([C@H]2CCCNC2)nn(Cc2cccc(C(=O)OC)c2)c1=O`: the “% Inhibition” value is -9% and the Z score was 1.2.
For `Cc1cc(C(=O)NCCn2nc(C(F)(F)F)n(C)c2=O)no1` the same measures were -5% and 0.61.
`CN(C)C(=O)Cn1cc(C(=O)Nc2ccccc2Oc2cccc(F)c2)nn1`: the “% Inhibition” value is on record as -11% and the Z score came out at 1.97.
For `O=C(c1ccncc1)N1CC(n2ccnn2)C1` the same measures were -11% and 1.67.
As to `Cc1cnc(C(=O)Nc2nc(-c3ccc4c(c3)OCO4)cs2)cn1`, the “% Inhibition” value is on record as -17% and the Z score is given as 3.16.
`O=C(NCc1ccccc1)c1cn(C[C@@H]2CC(F)(F)CN2C(=O)Cc2ccncc2)nn1`: the “% Inhibition” value is on record as -3% and the Z score came out at 0.54.
As to `CCN(CC)C(=O)c1ccc(Cl)c(NC(=O)NCC(F)(F)F)c1`, the “% Inhibition” value was -13% and the Z score stood at 1.19.
On to `COC(=O)c1cc2n(n1)CCN(C(=O)[C@@H]1COCCO1)C2`, for which the “% Inhibition” value was -18% and the Z score came to 1.75.
Taken in the same sequence, the figures for `C[C@H]1[C@@H](O)CCCN1C(=O)Cc1cccc(C(F)(F)F)n1` were -4% and 0.55.
Consider `C[C@H]1CN(c2cccc(C#N)n2)C[C@]1(O)C1CC1`, for which the “% Inhibition” value amounted to 9% and the Z score is -1.76.
Taken in the same sequence, the figures for `Cc1cc(C(=O)N[C@H](c2ncc[nH]2)C(C)C)ns1` were 16% and -1.87.
For `Cc1ccc(C2CCCCCN2C(=O)c2cn(C3CCOC3)nn2)o1` (stereo not drawn) the same measures were 13% and -1.7.
Take `COC(=O)Nc1nc(Cc2nc(-c3ccccn3)no2)cs1`: the “% Inhibition” value is -14% and the Z score is on record as 1.54.
For the compound `COCc1nc(C)nc(N2CCN(C(=O)C(C)C)CC2)c1Cc1ccccc1F`, the “% Inhibition” value is given as 16% and the Z score was -2.
As to `Cc1nn(-c2ccc3nnc(C)n3n2)c2c1[C@@H](c1cccc(OCC(C)C)c1)CC(=O)N2`, the “% Inhibition” value is listed as -13% and the Z score is recorded as 1.63.
Consider `CC(C)CN1CCn2nc(CNc3cc(C#N)ccn3)cc2C1`, for which the “% Inhibition” value came out at 0% and the Z score was -0.03.
For the compound `Cc1noc(C)c1S(=O)(=O)NCc1ccc2c(c1)OCCO2`, the “% Inhibition” value was -3% and the Z score came to 0.45.
In the case of `COCCNC(=O)NCC1CCCOC1C(C)(C)C` (stereo not drawn), the “% Inhibition” value is given as -5% and the Z score worked out at 0.79.
For `Cc1ccc(S(=O)(=O)N2CCN(C(=O)NCCn3cncn3)CC2)cc1` the same measures were -9% and 1.13.
Consider `CC(C)N(CC(C)(C)O)C(=O)N[C@H](c1ccccn1)C1CCCC1`, for which the “% Inhibition” value stood at 1% and the Z score is listed as -0.08.
In the case of `CC(C)n1cnnc1CCn1cnc2nccnc2c1=O`, the “% Inhibition” value is -13% and the Z score is 2.65.
As for `CN(C)S(=O)(=O)N1CCC[C@H](c2cc(-c3ccc(F)cc3)n[nH]2)C1`, the “% Inhibition” value amounted to 13% and the Z score is -1.69.
Taken in the same sequence, the figures for `Cc1csc(N(CC(F)(F)F)C(=O)CCc2cncc(F)c2)n1` were -14% and 1.53.
In the case of `O=C(c1ccc(NS(=O)(=O)c2cccs2)cc1)N1CCN(c2ccccc2Cl)CC1`, the “% Inhibition” value is recorded as -13% and the Z score is recorded as 1.7.
As for `O=S(=O)(CCC1CCOC1)N1CCCCC1c1ncc[nH]1` (stereo not drawn), the “% Inhibition” value was -3% and the Z score is recorded as 0.66.
Consider `COc1ccc(OC[C@H](CN(C)C2=NS(=O)(=O)c3ccccc32)OC(=O)c2ccc(C)cc2)cc1`, for which the “% Inhibition” value is -4% and the Z score was determined as 0.58.
Consider `Cc1ccc(-c2cc(-c3nc(-c4cccnc4)no3)[nH]n2)c(C)c1`, for which the “% Inhibition” value was 11% and the Z score is -1.17.
Regarding `COc1ccc2c(c1)N(C(=O)c1n[nH]c3c1CCC3)CCCC2`, the “% Inhibition” value is -12% and the Z score was 0.97.
Turning to `CC1CN(CC2CCCO2)CCC1Nc1ccc2[nH]ncc2c1` (stereo not drawn), the “% Inhibition” value is reported as -7% and the Z score was found to be 0.99.
Consider `O=C1Nc2ccccc2[C@@]12Nc1ccccc1CO2`, for which the “% Inhibition” value came out at 36% and the Z score is reported as -5.24.
On to `O=C(Nc1cccc2c1CCCC2)c1ccc2[nH]cnc2c1`, for which the “% Inhibition” value is on record as -7% and the Z score turned out to be 1.08.
For `Cc1nonc1CN1CC[C@H](C2CCCCC2)C1` the same measures were -3% and 0.54.
`COCC1(CNC(=O)C[C@H](N)c2ccccc2)CCC1`: the “% Inhibition” value was 8% and the Z score is listed as -1.08.
Regarding `CCOC(=O)c1nn(C)cc1CN(C)Cc1c(C)noc1C`, the “% Inhibition” value is recorded as -7% and the Z score was determined as 0.56.
`CC(=O)N1CCCN(C(=O)C2CC2c2ccc3ccccc3c2)CC1` (stereo not drawn): the “% Inhibition” value is -1% and the Z score worked out at 0.1.
Consider `O=C(Cc1nnc(-c2ccncc2)o1)Nc1ccccc1`, for which the “% Inhibition” value is -10% and the Z score is on record as 1.88.
For `O=C(N[C@H]1CCOC[C@@H]1Oc1cccc(F)c1)c1cnc2c(c1)CCC2`, the “% Inhibition” value was 2% and the Z score was -0.27.
In the case of `O=C(Nc1ccc(F)cc1F)N[C@H]1C[C@H]2C(=O)NC[C@@H](CCC(=O)N3CCC(O)CC3)N2C1`, the “% Inhibition” value turned out to be 3% and the Z score was -0.41.
Take `Cc1cnc([C@H](C)NC(=O)N2CCC(CCc3ccc(F)cc3F)CC2)o1`: the “% Inhibition” value is listed as -7% and the Z score amounted to 1.48.
Regarding `COC[C@H]1[C@H](NC(=O)c2csc(C(C)C)n2)[C@H]2CCO[C@H]21`, the “% Inhibition” value is recorded as -18% and the Z score worked out at 2.79.
Turning to `Cc1ccc(N2CCN(c3nc4c(c(N5CCOCC5)n3)CN(C(=O)c3ccco3)CC4)CC2)cc1C`, the “% Inhibition” value is reported as -9% and the Z score is 1.31.
For `Cc1ccc(F)cc1NC(=O)CCc1c(C)nn(-c2ccc3nnc(C)n3n2)c1C` the same measures were -13% and 1.6.
`CCCc1nc(N2Cc3cnn(CCO)c3C2)no1`: the “% Inhibition” value worked out at 2% and the Z score is reported as -0.3.
Regarding `CCN(CC)C(=O)Cn1ccc2ccc(-c3nnc(C)o3)cc21`, the “% Inhibition” value is -2% and the Z score was 0.19.
For `CCC(=O)N1c2ccc(S(=O)(=O)N3CCCCC3)cc2C[C@H]1C(=O)NCc1ccco1` the same measures were -4% and 0.54.
As for `Cc1cc(C)n(CCN(C)Cc2cc(=O)n3ccsc3n2)n1`, the “% Inhibition” value turned out to be 2% and the Z score was -0.32.
For the compound `Cc1c[nH]c(CNc2cc(C3CC3)ncn2)n1`, the “% Inhibition” value amounted to 1% and the Z score is listed as -0.22.
`COCCN1CC2(CCC1=O)CCN(C(=O)[C@@H]1CCc3ccccc31)CC2`: the “% Inhibition” value was -23% and the Z score is listed as 2.88.
Regarding `COc1ccc(F)c(F)c1CN1C[C@@H]2NCCO[C@H]2C1`, the “% Inhibition” value is listed as -10% and the Z score was 1.24.
For `Cc1csc(NC(=O)c2cc(-c3ccccc3)on2)n1`, the “% Inhibition” value is recorded as -6% and the Z score came to 1.01.
Taken in the same sequence, the figures for `C=CC[C@]1(CO)CCCN(c2cc(C3CC3)ncn2)C1` were -16% and 3.14.
As to `O=C(c1cc(-c2ccco2)n[nH]1)N1CCC(Oc2nncs2)CC1`, the “% Inhibition” value stood at 20% and the Z score was -2.49.
For the compound `O=C(C1CC1c1ccccc1)N(c1ccc(F)cn1)C1CCOCC1` (stereo not drawn), the “% Inhibition” value is 44% and the Z score is reported as -6.09.
